The record followed here is paper PMC11889217 (Nature Communications, 2025).

This data set deals with the molecule itself. Put plainly: cryo-EM structure.

B1: apoGAD65 (N-terminally truncated glutamate decarboxylase 65, […], purified without added PLP) (enzyme)
chain: not shown
For the protein B1, the stoichiometry N (as a rule, the number of molecules, sites or subunits per partner or assembly) was determined as 2.
